Source: PubChem BioAssay AID504832 (National Center for Advancing Translational Sciences (NCATS), 2011)
About 18,000 (5.8%) of roughly 310,000 compounds were called active. The inconclusive results got no clear call from the source; some entries with a clear call stand among them for comparison. Calls follow the shape of the dose curve; as a rule, active = well fitted inhibition curve with a large enough effect; inconclusive = small, poorly fitted or top-dose-only effect, or another doubt; inactive = no such curve, though single readings can be large or run the other way. No potency is given beside an inconclusive call; the fits are too rough.

test: Primary qHTS for delayed death inhibitors of the malarial parasite plastid, 48 hour incubation; settings: P. falciparum luciferase growth in erythrocytes; series mostly up to 28.7 µM; activity change, negative = inhibition: at the top concentration
How it was run: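 Growth was read as firefly luciferase luminescence after a 48 h, 37 C, 5% CO2 exposure of compounds to reporter-bearing P. falciparum cultures (0.1% parasitemia, 2% hematocrit final) in Albumax-supplemented RPMI 1640.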
% is scaled to controls: 0 for no effect and ±100 for the full control effect; potency is read from the fitted curve at half-maximal effect; tags tell the direction and shape of the fitted curve.

| Compound | activity change, negative = inhibition | Potency |
| --- | --- | --- |
| CCN1CCC2(CC1)Oc1c(OC)cccc1C1CC(c3cccnc3)=NN12 (stereo not drawn) | inactive: 30.2% | – |
| Cc1ccc2nc(NC(=O)C3CCCN(S(=O)(=O)c4cccnc4)C3)sc2c1 (stereo not drawn) | – | active: 13.1 µM |
| Cc1cccc2c1N(C(=O)CN1C(=O)c3ccccc3C1=O)C(C)(C)c1ssc(=S)c1-2 | – | inconclusive [inhibitor, single point] |
| C=CCOc1c2ccc(C(=O)N(CC)c3ccc(OC)cc3)cc2nn1C | – | inconclusive [inhibitor, single point] |
| Cc1ccc(NC(=S)N/N=C/c2ccc(Cl)c([N+](=O)[O-])c2)cc1 | inactive: 18.9% | – |
| Cc1ccccc1CSCc1nc2ccccc2[nH]1 | – | inconclusive [inhibitor, partial curve, poor fit] |
| O=C(Nc1ccccc1)C1=C[C@@H](c2csc3ccccc23)C[C@@H](OCc2ccc(CO)cc2)O1 | – | inconclusive [inhibitor, partial curve] |
| COc1ccc(/C=C/c2c(-c3ccc(OC)cc3)sc3ccc(N4CCOCC4)cc23)cc1 | – | inconclusive [inhibitor, full curve, poor fit] |
| CCOc1ccc2nc(-c3ccccc3)nc(SCC(=O)OC)c2c1 | – | inconclusive [inhibitor, full curve, poor fit] |
| CC(=O)N(C1=C(N)C(=O)c2ccccc2C1=O)C(C)C | – | active: 13.1 µM |
| COc1ccc2c(c1OC)C(=O)N1c3cccc(Cl)c3C(=O)OC21 (stereo not drawn) | inactive: 4.43% | – |
| Cc1sc2nc(SCCN(C)C)n(-c3ccccc3)c(=O)c2c1-c1ccc(F)cc1 | – | active: 10.4 µM |
| C=CCS(=O)(=O)N1CCCC(Cc2ccccc2C)(C(=O)OCC)C1 (stereo not drawn) | – | inconclusive [inhibitor, full curve] |
| COc1ccccc1CCn1c(N)c(C#N)c2nc3ccccc3nc21 | – | active: 9.28 µM |
| Cc1ccc(Cl)cc1N1CCN(Cc2nnnn2C2CCCCC2)CC1 | – | inconclusive [inhibitor, single point] |
| CN(C)CCCN(C(=O)c1ccc(S(=O)(=O)N2CCOCC2)cc1)c1nc2cc3c(cc2s1)OCO3 | – | inconclusive [inhibitor, single point] |
| O=C(CNS(=O)(=O)c1c(Cl)cccc1Cl)OCC(=O)N1CCN(c2ccccc2)CC1 | inactive: 14.9% | – |
| O=C(CCCCCn1c(=S)[nH]c2ccc(N3CCOCC3)cc2c1=O)NCc1ccccc1Cl | – | inconclusive [inhibitor, full curve, poor fit] |
| Cc1ccc(NC(=O)COC(=O)C2CC3CCCC(C2)C3=O)c([N+](=O)[O-])c1 (stereo not drawn) | inactive: 1.65% | – |
| CNC(C)C#Cc1c(-c2cc(OC)c(OC)c(OC)c2)noc1C (stereo not drawn) | – | inconclusive [inhibitor, single point] |
| CCN(CC)CCNC(=O)COc1ccc(OC)cc1 | – | inconclusive [inhibitor, single point] |
| Cc1cccc(-c2noc(CN(C(=O)CCc3ccccc3)C(C)C)n2)c1 | inactive: 0.336% | – |
| COc1ccc2[nH]c(=O)c(CN(C(=O)C3CCCO3)c3ccc(C)c(C)c3)cc2c1 (stereo not drawn) | – | inconclusive [inhibitor, single point] |

| Compound | activity change, negative = inhibition | Potency |
| --- | --- | --- |
| C=CCOC(=O)C(C#N)c1nc2ccccc2nc1N1CCN(Cc2ccc3c(c2)OCO3)CC1 (stereo not drawn) | – | inconclusive [inhibitor, partial curve] |
| CC(=O)NC(=S)Nc1ccccc1N1CCCCC1 | – | inconclusive [inhibitor, partial curve, poor fit] |
| Cc1ccc(Cn2c(=N)c(C(=O)NC3CCCCC3)cc3c(=O)n4ccccc4nc32)cc1 | – | active: 4.15 µM |
| NC(=O)CCCn1c(C(=O)c2cc(Cl)c(N)c(Cl)c2)c2ccc(C(F)(F)F)cc2[n+]1[O-] | – | active: 5.86 µM |
| CC1=C(C(=O)Nc2ccccc2)C(c2ccco2)C(C#N)=C(SCC(=O)Nc2cccc(C)c2C)N1 (stereo not drawn) | – | active: 2.62 µM |
| COc1ccc(/C=C2\N=C(SC)N(c3ccccc3OC)C2=O)cc1 | – | inconclusive [inhibitor, single point] |
| O=C(N/N=C/c1cccnc1)c1cccc(NC(=O)c2ccc(Cl)cc2)c1 | – | inconclusive [inhibitor, partial curve, poor fit] |
| Cc1ccc(CN=c2c([N+](=O)[O-])nn(-c3cccc(Cl)c3)n2O)cc1 | – | inconclusive [inhibitor, single point] |
| COc1cc(C2C(C#N)=C(N)OC3=C2C(=O)CC(C)(C)C3)ccc1OCCN1CCOCC1 (stereo not drawn) | inactive: 15.8% | – |
| COc1ccc(-n2nc(C(=O)NCC(=O)N3CCN(Cc4ccccc4)CC3)c3ccccc3c2=O)cc1 | – | inconclusive [inhibitor, single point] |
| CCc1ccc(NC(=O)COc2ccc(Br)cn2)cc1 | inactive: 11.2% | – |
| COc1ccc(N2CCN(C(C)C(=O)N3CC(C)OC(C)C3)CC2)cc1 (stereo not drawn) | inactive: 18.7% | – |
| CN(Cc1ccccc1)c1nc(CN2CCOCC2)nc2scc(-c3ccccc3)c12 | – | inconclusive [inhibitor, single point] |
| N#C/C(=C(/O)CN1CCCC1)c1nc(-c2ccccc2)cs1 | inactive: 149% | – |
| CSc1nc2[nH]c3c(c2c2ncnn12)CCCC3 | – | inconclusive [inhibitor, full curve] |
| COc1cc(C(C(=O)NCc2ccccc2)N(Cc2ccco2)C(=O)c2cnccn2)cc(OC)c1OC (stereo not drawn) | – | active: 9.28 µM |
| COc1ccc(NC(=O)CN(Cc2ccco2)Cc2ccco2)cc1S(=O)(=O)N1CCCCC1 | – | inconclusive [inhibitor, single point] |
| CCn1c(=O)c([N+](=O)[O-])c(N2CCSCC2)c2ccccc21 | inactive: -15.1% | – |
| COC(=O)CSc1nnc(CNC(=O)c2cccs2)n1-c1cc(OC)ccc1OC | inactive: 25.6% | – |
| COc1ccccc1C(=O)NCCC(=O)N1CCN(S(=O)(=O)c2cccc(Cl)c2)CC1 | – | inconclusive [inhibitor, single point] |
| COc1cc(CCCN[C@H](CN)Cc2ccccc2)cc(OC)c1OC | – | inconclusive [inhibitor, partial curve, poor fit] |
| COC(=O)C1=C2SCC(=O)N2C(N)=C(C#N)C1 | inactive: -3.73% | – |
| COc1ccc(CN2C(=O)c3ccccc3C(/C=N\OCc3ccc(F)cc3)C2=O)cc1 (stereo not drawn) | – | inconclusive [inhibitor, single point] |

| Compound | activity change, negative = inhibition | Potency |
| --- | --- | --- |
| CC(C)C(=O)Nc1ccc(C(=O)N/N=C/c2cc(Br)cc(Br)c2O)cc1 | – | inconclusive [inhibitor, single point] |
| O=C(Cc1cccs1)N=Nc1c(O)[nH]c2ccccc12 | – | inconclusive [inhibitor, partial curve] |
| CCCCN(C)CCN1C(=O)C2C(C(=O)Nc3ccc(OC)cc3)C3C=CC2(O3)C1C(=O)NC1CCCCC1 (stereo not drawn) | – | inconclusive [inhibitor, partial curve] |
| COc1ccc(Cn2c(C)cc3c(c2=O)C(c2cccs2)C(C#N)=C(N)O3)cc1OC (stereo not drawn) | – | inconclusive [inhibitor, single point] |
| COc1ccc(CNC(=O)C2CCCN(S(=O)(=O)c3ccc(Br)s3)C2)cc1 (stereo not drawn) | – | inconclusive [inhibitor, single point] |
| CN(C)c1nc(NCc2ccccc2)nc(SCC(=O)Nc2ccc(Cl)c(Cl)c2)n1 | – | active: 10.4 µM |
| CC(C)[C@H](NC(N)=O)C(=O)Nc1ccc(OCc2ccccc2)cc1 | inactive: 51.8% | – |
| Cc1nn(C)c2ncc(C(N)=O)c(Oc3cccnc3)c12 | inactive: -8.13% | – |
| N#CCc1c(C#N)c(N)nc(N2CCN(Cc3ccc4c(c3)OCO4)CC2)c1C#N | – | inconclusive [inhibitor, partial curve, poor fit] |
| Cc1ccc(NC(=O)c2nc[nH]c2C(=O)N2CCN(C(=O)OC(C)(C)C)CC2)cc1 | – | inconclusive [inhibitor, single point] |
| CC(=O)N1CCC2(CC1)CC(=O)c1cc(OCC(=O)NCc3ccc(C)cc3)ccc1O2 | – | inconclusive [inhibitor, single point] |
| COc1ccccc1C(=O)NCC(=O)OCC(=O)Nc1ccc2[nH]c(=O)[nH]c2c1 | inactive: -15.4% | – |
| CCc1nc2c(s1)CCc1onc(-c3ccc(Cl)cc3)c1-2 | – | inconclusive [inhibitor, single point] |
| Cc1cccc(C(=O)c2c(N)sc3c2CCC(C)C3)c1 (stereo not drawn) | inactive: 27.8% | – |
| CCN(CC)CCN(C(=O)/C=C/c1cccs1)c1nc2ccc(F)cc2s1 | – | inconclusive [inhibitor, single point] |
| CC1=Nn2c(nnc2-c2cc(-c3ccccc3)n[nH]2)SC1 | – | inconclusive [inhibitor, single point] |
| COc1cc(-c2noc(C3CCCN(C(=O)c4c(F)cccc4F)C3)n2)cc(OC)c1OC (stereo not drawn) | – | inconclusive [inhibitor, full curve, poor fit] |
| C=CCn1c(C)cc(C2=NNC(=NCC)SC2)c1C | – | inconclusive [inhibitor, single point] |
| CCOC(=O)C1CCN(C(=O)c2cccc(Cl)c2)CC1 | inactive: -8.21% | – |
| CC(C)c1c(C(=O)N/N=C/c2ccc3c(c2)OCO3)nnn1-c1nonc1N | inactive: 18.2% | – |
| CCN(CC)c1ncnc2c1ncn2Cc1c(Cl)cccc1Cl | – | inconclusive [inhibitor, single point] |
| COc1ccc(NS(=O)(=O)c2cccc(C(=O)NNC(=O)c3ccc(O)c(Cl)c3)c2)cc1 | – | inconclusive [inhibitor, single point] |
